Laboratory results: the supplement of paper PMC8728848
The list shows a part of the results.

Legend:
Assay in all cases: glycan array binding signal (z-score within array); higher = stronger binding
Conditions in all cases: glycan notation: IUPAC condensed, linker removed
[1] = biological target: GlcNAc6S(b1-3)Gal(b1-4)GlcNAc
In short: (§1)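 The binding signal is a Z-score computed within each array and averaged over linkers. Arrays of the same protein sequence at different concentrations or buffers were also averaged together. Data originate from 3228 arrays in the Consortium for Functional Glycomics database, kept only where the protein sequence was available.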

Kdn(a2-3)Gal(b1-3)GalNAc = biological target: Kdn(a2-3)Gal(b1-3)GalNAc
In short: as §1

Kdn(a2-3)Gal(b1-3)GlcNAc = biological target: Kdn(a2-3)Gal(b1-3)GlcNAc
In short: as §1

Kdn(a2-3)Gal(b1-4)Glc = biological target: Kdn(a2-3)Gal(b1-4)Glc
In short: as §1

Kdn(a2-3)Gal(b1-4)GlcNAc = biological target: Kdn(a2-3)Gal(b1-4)GlcNAc
In short: as §1

[2] = biological target: Kdn(a2-3)Gal(b1-4)[Fuc(a1-3)]GlcNAc
In short: as §1

Kdn(a2-6)Gal(b1-4)GlcNAc = biological target: Kdn(a2-6)Gal(b1-4)GlcNAc
In short: as §1

[3] = biological target: Man(a1-2)Man(a1-2)Man(a1-3)Man
In short: as §1

[4] = biological target: Man(a1-2)Man(a1-2)Man(a1-6)[Man(a1-3)]Man
In short: as §1

Man(a1-2)Man(a1-3)Man = biological target: Man(a1-2)Man(a1-3)Man
In short: as §1

[5] = biological target: Man(a1-2)Man(a1-3)[Man(a1-2)Man(a1-6)]Man
In short: as §1

[6] = biological target: Man(a1-2)Man(a1-3)[Man(a1-2)Man(a1-6)]Man(a1-6)[Man(a1-2)Man(a1-2)Man(a1-3)]Man
In short: as §1

[7] = biological target: Man(a1-2)Man(a1-3)[Man(a1-2)Man(a1-6)]Man(a1-6)[Man(a1-2)Man(a1-2)Man(a1-3)]Man(b1-4)GlcNAc(b1-4)GlcNAc
In short: as §1

[8] = biological target: Man(a1-2)Man(a1-3)[Man(a1-6)]Man(a1-6)[Man(a1-2)Man(a1-3)]Man(b1-4)GlcNAc(b1-4)GlcNAc
In short: as §1

[9] = biological target: Man(a1-2)Man(a1-6)[Man(a1-3)]Man(a1-6)[Man(a1-2)Man(a1-2)Man(a1-3)]Man
In short: as §1

[10] = biological target: Man(a1-2)Man(a1-6)[Man(a1-3)]Man(a1-6)[Man(a1-2)Man(a1-2)Man(a1-3)]Man(b1-4)GlcNAc(b1-4)GlcNAc
In short: as §1

Man(a1-3)[Man(a1-6)]Man = biological target: Man(a1-3)[Man(a1-6)]Man
In short: as §1

[11] = biological target: Man(a1-3)[Man(a1-6)]Man(a1-6)[Man(a1-2)Man(a1-3)]Man(b1-4)GlcNAc(b1-4)GlcNAc
In short: as §1

[12] = biological target: Man(a1-3)[Man(a1-6)]Man(a1-6)[Man(a1-3)]Man
In short: as §1

[13] = biological target: Man(a1-3)[Man(a1-6)]Man(a1-6)[Man(a1-3)]Man(b1-4)GlcNAc(b1-4)GlcNAc
In short: as §1

[14] = biological target: Man(a1-3)[Man(a1-6)]Man(b1-4)GlcNAc(b1-4)GlcNAc
In short: as §1

Man(a1-6)Man = biological target: Man(a1-6)Man
In short: as §1

Man(b1-4)GlcNAc = biological target: Man(b1-4)GlcNAc
In short: as §1

Neu5Ac(a2-3)Gal = biological target: Neu5Ac(a2-3)Gal
In short: as §1

[15] = biological target: Neu5Ac(a2-3)Gal(b1-3)GalNAc
In short: as §1

[16] = biological target: Neu5Ac(a2-3)Gal(b1-3)GalNAc(b1-3)Gal(a1-4)Gal(b1-4)Glc
In short: as §1

[17] = biological target: Neu5Ac(a2-3)Gal(b1-3)GalNAc(b1-4)[Neu5Ac(a2-3)]Gal(b1-4)Glc
In short: as §1

[18] = biological target: Neu5Ac(a2-3)Gal(b1-3)GalNAc6S
In short: as §1

[19] = biological target: Neu5Ac(a2-3)Gal(b1-3)GlcNAc
In short: as §1

[20] = biological target: Neu5Ac(a2-3)Gal(b1-3)GlcNAc(b1-2)Man(a1-3)[Neu5Ac(a2-3)Gal(b1-3)GlcNAc(b1-2)Man(a1-6)]Man(b1-4)GlcNAc(b1-4)GlcNAc
In short: as §1

[21] = biological target: Neu5Ac(a2-3)Gal(b1-3)GlcNAc(b1-3)Gal(b1-3)GlcNAc
In short: as §1

[22] = biological target: Neu5Ac(a2-3)Gal(b1-3)GlcNAc(b1-3)Gal(b1-4)GlcNAc
In short: as §1

[23] = biological target: Neu5Ac(a2-3)Gal(b1-3)GlcNAc(b1-3)GalNAc
In short: as §1

[24] = biological target: Neu5Ac(a2-3)Gal(b1-3)GlcNAc6S
In short: as §1

[25] = biological target: Neu5Ac(a2-3)Gal(b1-3)[Fuc(a1-4)]GlcNAc
In short: as §1

[26] = biological target: Neu5Ac(a2-3)Gal(b1-3)[Fuc(a1-4)]GlcNAc(b1-3)Gal(b1-3)[Fuc(a1-4)]GlcNAc
In short: as §1

[27] = biological target: Neu5Ac(a2-3)Gal(b1-3)[Fuc(a1-4)]GlcNAc(b1-3)Gal(b1-4)[Fuc(a1-3)]GlcNAc
In short: as §1

[28] = biological target: Neu5Ac(a2-3)Gal(b1-3)[Neu5Ac(a2-3)Gal(b1-4)]GlcNAc
In short: as §1

[29] = biological target: Neu5Ac(a2-3)Gal(b1-3)[Neu5Ac(a2-6)]GalNAc
In short: as §1

Neu5Ac(a2-3)Gal(b1-4)Glc = biological target: Neu5Ac(a2-3)Gal(b1-4)Glc
In short: as §1

[30] = biological target: Neu5Ac(a2-3)Gal(b1-4)GlcNAc
In short: as §1

[31] = biological target: Neu5Ac(a2-3)Gal(b1-4)GlcNAc(b1-2)Man(a1-3)[GlcNAc(b1-2)Man(b1-4)GlcNAc(b1-2)Man(a1-6)]Man(b1-4)GlcNAc(b1-4)GlcNAc
In short: as §1

[32] = biological target: Neu5Ac(a2-3)Gal(b1-4)GlcNAc(b1-2)Man(a1-3)[Neu5Ac(a2-6)Gal(b1-4)GlcNAc(b1-2)Man(a1-6)]Man(b1-4)GlcNAc(b1-4)GlcNAc
In short: as §1

[33] = biological target: Neu5Ac(a2-3)Gal(b1-4)GlcNAc(b1-3)Gal(b1-3)GlcNAc
In short: as §1

[34] = biological target: Neu5Ac(a2-3)Gal(b1-4)GlcNAc(b1-3)Gal(b1-4)GlcNAc
In short: as §1

B1: CTLY 1 (Homo sapiens), Q6ZS10 (protein)
chain: AITCPEGWLPFEGKCYYFSPSTKSWDEARMFCQENYSHLVIINSFAEHNFVAKAHGSPRVYWLGLNDRAQEGDWRWLDGSPVTLSFWEPEEPNNIHDEDCATMNKGGTWNDLSCYKTTYWICERKGLNDIFEAQKIEWHE
glycan array binding signal (z-score) [1]: -0.249
glycan array binding signal (z-score) (Kdn(a2-3)Gal(b1-3)GalNAc): -0.237
glycan array binding signal (z-score) (Kdn(a2-3)Gal(b1-3)GlcNAc): -0.218
glycan array binding signal (z-score) (Kdn(a2-3)Gal(b1-4)Glc): -0.217
glycan array binding signal (z-score) (Kdn(a2-3)Gal(b1-4)GlcNAc): -0.234
glycan array binding signal (z-score) [2]: -0.246
glycan array binding signal (z-score) (Kdn(a2-6)Gal(b1-4)GlcNAc): -0.232
glycan array binding signal (z-score) [3]: 6.07
glycan array binding signal (z-score) [4]: 10.1
glycan array binding signal (z-score) (Man(a1-2)Man(a1-3)Man): 1.1
glycan array binding signal (z-score) [5]: 4.5
glycan array binding signal (z-score) [6]: 8.68
glycan array binding signal (z-score) [7]: -0.232
glycan array binding signal (z-score) [8]: -0.023
glycan array binding signal (z-score) [9]: 4.81
glycan array binding signal (z-score) [10]: 0.475
glycan array binding signal (z-score) (Man(a1-3)[Man(a1-6)]Man): -0.175
glycan array binding signal (z-score) [11]: 0.443
glycan array binding signal (z-score) [12]: -0.185
glycan array binding signal (z-score) [13]: -0.105
glycan array binding signal (z-score) [14]: -0.209
glycan array binding signal (z-score) (Man(a1-6)Man): -0.228
glycan array binding signal (z-score) (Man(b1-4)GlcNAc): -0.239
glycan array binding signal (z-score) (Neu5Ac(a2-3)Gal): -0.238
glycan array binding signal (z-score) [15]: -0.249
glycan array binding signal (z-score) [16]: -0.202
glycan array binding signal (z-score) [17]: -0.231
glycan array binding signal (z-score) [18]: -0.225
glycan array binding signal (z-score) [19]: -0.247
glycan array binding signal (z-score) [20]: -0.228
glycan array binding signal (z-score) [21]: -0.221
glycan array binding signal (z-score) [22]: -0.235
glycan array binding signal (z-score) [23]: -0.237
glycan array binding signal (z-score) [24]: -0.221
glycan array binding signal (z-score) [25]: 0.687
glycan array binding signal (z-score) [26]: 0.772
glycan array binding signal (z-score) [27]: 0.555
glycan array binding signal (z-score) [28]: -0.254
glycan array binding signal (z-score) [29]: -0.23
glycan array binding signal (z-score) (Neu5Ac(a2-3)Gal(b1-4)Glc): -0.24
glycan array binding signal (z-score) [30]: -0.229
glycan array binding signal (z-score) [31]: -0.241
glycan array binding signal (z-score) [32]: -0.247
glycan array binding signal (z-score) [33]: -0.248
glycan array binding signal (z-score) [34]: -0.264
